# Screen size: about 310,000 compounds; about 14,000 (4.5%) showed an effect of 50% or more. Effects have a minus sign here. Some of the results follow.
# Target: human ether-à-go-go-related gene (hERG) potassium channel (human, UniProt Q12809)
# Test: primary screen, population patch clamp on CHO cells stably expressing hERG
# 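Also: peak tail current of the secondary pulse compared with the same well before compound.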
# Chain of human ether-à-go-go-related gene (hERG) potassium channel (Q12809 whole entry, looked up): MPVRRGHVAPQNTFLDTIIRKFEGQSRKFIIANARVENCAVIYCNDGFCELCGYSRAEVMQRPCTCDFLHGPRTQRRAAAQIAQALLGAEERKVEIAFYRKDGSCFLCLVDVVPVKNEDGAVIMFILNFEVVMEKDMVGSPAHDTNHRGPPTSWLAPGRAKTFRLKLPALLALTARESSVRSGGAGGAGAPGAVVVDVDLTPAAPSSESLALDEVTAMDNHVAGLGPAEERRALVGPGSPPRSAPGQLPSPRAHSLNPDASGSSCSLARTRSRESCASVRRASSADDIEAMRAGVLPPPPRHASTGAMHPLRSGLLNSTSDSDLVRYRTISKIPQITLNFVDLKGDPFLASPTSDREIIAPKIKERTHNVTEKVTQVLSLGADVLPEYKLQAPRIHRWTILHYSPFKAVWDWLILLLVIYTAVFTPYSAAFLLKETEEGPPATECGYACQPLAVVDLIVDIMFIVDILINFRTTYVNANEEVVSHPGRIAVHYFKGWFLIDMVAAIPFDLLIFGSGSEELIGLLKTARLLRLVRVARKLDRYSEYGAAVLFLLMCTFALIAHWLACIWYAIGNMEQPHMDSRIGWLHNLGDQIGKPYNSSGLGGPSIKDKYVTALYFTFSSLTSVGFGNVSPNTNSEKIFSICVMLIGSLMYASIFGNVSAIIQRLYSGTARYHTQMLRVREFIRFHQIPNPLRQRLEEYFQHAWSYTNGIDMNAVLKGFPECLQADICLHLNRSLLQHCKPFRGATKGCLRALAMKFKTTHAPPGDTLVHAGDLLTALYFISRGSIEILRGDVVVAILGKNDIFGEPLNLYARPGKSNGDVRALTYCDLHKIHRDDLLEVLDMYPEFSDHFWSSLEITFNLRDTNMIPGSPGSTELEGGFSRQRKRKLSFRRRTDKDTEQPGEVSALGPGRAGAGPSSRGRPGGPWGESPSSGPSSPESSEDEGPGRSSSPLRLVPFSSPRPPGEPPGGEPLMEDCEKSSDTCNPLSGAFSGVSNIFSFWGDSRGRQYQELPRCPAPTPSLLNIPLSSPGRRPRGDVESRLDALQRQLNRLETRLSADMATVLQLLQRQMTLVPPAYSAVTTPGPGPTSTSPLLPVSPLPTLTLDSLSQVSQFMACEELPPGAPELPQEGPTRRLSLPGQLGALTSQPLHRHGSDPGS
row,SMILES,"hERG current change (%, negative = inhibition) at 10uM [%]"
1,NC(=O)C1CCN(CC(O)COCc2ccccc2Cl)CC1 (stereo not drawn),18.8
2,COc1cc(C(=O)OCC(=O)Nc2nnc(-c3ccccc3)o2)cc(OC)c1OC,2.63
3,CCOc1cc(S(=O)(=O)NCc2ccco2)c(OCC)cc1-n1cnnn1,-10.8
4,Cc1nn(C(C)C(=O)NCc2cccs2)c(C)c1[N+](=O)[O-] (stereo not drawn),6.95
5,CN(C)S(=O)(=O)c1ccc(NC(=O)CN2C(=O)NC3(CCCC3)C2=O)cc1,8.41
6,CC1=C(C)Cc2c(OC(=O)c3ccccc3)ccc(OC(=O)c3ccccc3)c2C1,12.9
7,CCOC(=O)c1ccc(NC(=S)N2CCSC2c2ccc(OC)cc2)cc1 (stereo not drawn),3.01
8,O=C(Nc1cccnc1Cl)c1cccc(F)c1,9.2
9,CCCn1c2ccccc2c2cnn(CC(=O)NCCCN3CCCC(C)C3)c(=O)c21 (stereo not drawn),-70.8
10,CC(C(=O)N1CCOCC1)N1C(=O)C2C3C=CC(C4CC34)C2C1=O (stereo not drawn),18
11,NNC(=O)Cn1c(-c2nonc2N)nc2ccccc21,13.8
12,Cc1ccc(CN2C3=NCCCN3c3ccccc32)cc1.Cl,-61.2
13,Cn1nccc1NC(=O)CSCC(=O)O,16.9
14,CCOc1ccc(OCc2ccc(C(=O)O)o2)cc1,10.2
15,CCCCC(c1nnnn1Cc1ccco1)N1CCN(c2nc3ccccc3s2)CC1 (stereo not drawn),-38.4
16,C/C(=N\NC(=O)CSc1nc2ccccc2s1)c1ccco1,0.0885
17,CCN(CC)CCNC(=O)C(=O)NCC1OCCN1S(=O)(=O)c1ccc2c(c1)OCCO2 (stereo not drawn),-5.94
18,CC(=O)Nc1ccccc1-c1nc2cc(C#N)c(C#N)cc2[nH]c1=O,-4.17
19,CCOc1ccc(CNS(=O)(=O)c2ccc3c(c2)CC(=O)N3C)cc1,-1.45
20,COC(=O)C1=CN(CC2CCCO2)C=C(C(=O)OC)C1c1ccccc1C(F)(F)F (stereo not drawn),8.49
21,CC(C)[C@H](NC(=O)c1ccccc1F)C(=O)NCCc1ccccc1,9.54
22,O=C(CN1C(=O)NC2(CCCC2)C1=O)Nc1ccccc1,10.9
23,COc1cccc(NC(=O)Nc2ccc3c(c2)nnn3C)c1,8.18

row,SMILES,"hERG current change (%, negative = inhibition) at 10uM [%]"
1,Clc1ccc(-c2ncc3ccccn23)cc1,-4.95
2,CCOC(=O)c1c(CN2CCN(Cc3ccccc3)CC2)n(C)c2cc(Br)c(OC)cc12,7.08
3,COc1cc(OC)cc(-c2oc(=O)c3cc(OC)c(OC)cc3c2C#CCCCO)c1,16.8
4,Brc1cc2[nH]cnc2c2ccccc12,7.91
5,O=C(Nc1ccc2oc(=O)ccc2c1)c1ccco1,-2.37
6,O=C(CCC(=O)n1ncc2ccccc21)NCc1ccc(F)cc1,-18.1
7,COC(=O)c1ccc(OCC(O)CN2CCc3cc(OC)c(OC)cc3C2c2ccccc2)cc1 (stereo not drawn),-40.4
8,c1ccc(CCCN2CCN(c3ccccc3)CC2)cc1,-61.3
9,CCOc1ccc2c(c1)C(=O)c1cc(OCC(=O)O)ccc1-2,7.08
10,COc1ccc(CC(=O)NCCN2CCCC2)cc1.Cl,4.76
11,CC1(C)NC(=O)N(CC(O)CN(c2cccc([N+](=O)[O-])c2)S(=O)(=O)c2ccccc2)C1=O (stereo not drawn),3.98
12,CC(OC(=O)CCc1nc2ccccc2c(=O)[nH]1)C(=O)NC1CCCC1 (stereo not drawn),9.21
13,COCCCn1c(N)c(C(=O)Nc2sc3c(c2C(=O)OC)CCCC3)c2nc3ccccc3nc21,2.24
14,O=C(c1ccccc1C(F)(F)F)N1CCN(S(=O)(=O)c2ccccc2)CC1,23.6
15,Brc1ccc(C2=NC(Cc3ccccc3)CO2)cc1 (stereo not drawn),-2.02
16,C(=N\N1CCN(Cc2ccccc2)CC1)/c1ccc(-c2ccccc2)cc1,-11.3
17,COc1ccccc1N(CC(=O)NCc1ccccc1)S(C)(=O)=O,6.12
18,O=C(NCc1cccnc1)c1cc(-c2ccco2)on1,8.02
19,C/C(=N\NC(=O)c1ccc(CSc2nncn2C)cc1)c1ccc2ccccc2c1,11.9
20,Cc1ccc(NS(=O)(=O)c2cc(OCC(N)=O)c(C)cc2Cl)cc1,0.202
21,CC(=O)Oc1ccc(C(=O)Nc2cccc(C(=O)c3ccc(C)c(C)c3)c2)cc1,-46.2
22,Nn1c(SCC(=O)Nc2ccc(F)cc2)nnc1C1CCCCC1,-9.96
23,Cc1noc(C)c1COc1ccccc1C(=O)N1CCN(c2cccc(C(F)(F)F)c2)CC1,-38

row,SMILES,"hERG current change (%, negative = inhibition) at 10uM [%]"
1,CCOC(=O)c1ccc(N/C=C2/CCCC(C)C2=O)cc1 (stereo not drawn),16
2,CCn1c(SCC(=O)NCCc2ccc(F)cc2)nnc1-c1cccs1,-61.9
3,Cc1cc(-c2ccc(C)c(S(=O)(=O)NCCC(C)N3CCCCCC3)c2)on1 (stereo not drawn),-11.6
4,Nc1nc(SCc2cccc(Br)c2)n[nH]1,8.49
5,Cc1ccc(-n2nnnc2SC(C)C(=O)Nc2ccc(Cl)cn2)cc1 (stereo not drawn),-22.1
6,CCc1nnc(NC(=O)CCC(=O)NCc2ccccc2Cl)s1,-0.367
7,CC(=O)c1ccc(OCC(O)CN2CCN(CC(O)COc3ccc(C(C)=O)cc3)CC2)cc1 (stereo not drawn),-39.4
8,CCc1cccc(C)c1NC(=O)Cn1nc(C)n2cccc2c1=O,22.9
9,COc1ccccc1N1C(=O)c2ccc(C(=O)Nc3nccs3)cc2C1=O,17.5
10,COc1ccccc1NC(=O)CSc1nc(N)c(C#N)cc1C#N,17.5
11,N#Cc1cc2c(nc1SCC1COc3ccccc3O1)CCC2 (stereo not drawn),-7.43
12,COc1ccccc1CN1CC(C(=O)NCc2cc(C)on2)CCC1=O (stereo not drawn),15.1
13,Cc1ccccc1N(C(=O)CCC(=O)Nc1ccccn1)C(C(=O)NC(C)C)c1ccc(F)cc1 (stereo not drawn),7.84
14,Cc1ccc(-n2c(SCC(=O)Nc3cc(C)on3)nc3c([nH]c4ccccc43)c2=O)cc1,2.04
15,Cc1ccc(OC(=O)Nc2ccccc2)cc1,7.21
16,COc1cccc(NC(=O)c2cnc[nH]2)c1,25.1
17,CC(C)OCCCNC(=O)C1CCN(S(=O)(=O)c2ccc3nc4c(c(C(=O)O)c3c2)CCCCC4)CC1,30.8
18,Cc1cc(C(=O)N2CCCC(N3CCN(c4cccc(Cl)c4)CC3)C2)no1 (stereo not drawn),-27.8
19,CCCCN1CN(Cc2ccccc2)CNC1=S,14.9
20,O=C(CSc1ncn[nH]1)NC12CC3CC(CC(C3)C1)C2,-5.91
21,O=C1NC(=S)N/C1=C/c1cccnc1,4.46
22,CCOC(=O)C1CCN(Cc2nc(-c3ccc(OC)c(OC)c3)no2)CC1,2.83
23,COC(=O)CC(NS(=O)(=O)c1cccs1)c1ccccc1Cl (stereo not drawn),23.3

row,SMILES,"hERG current change (%, negative = inhibition) at 10uM [%]"
1,NNC1=[NH+][C@H]2CS(=O)(=O)C[C@H]2S1.[Br-],11.8
2,CC(C)=C1C2CCC1C(C(=O)NCc1ccccc1)C2C(=O)O (stereo not drawn),14.8
3,CCCN(C(=O)CSc1cc(-c2ccccc2)c2ccc(OC)cc2n1)C1CCS(=O)(=O)C1 (stereo not drawn),4.44
4,O=C(CCN1C(=O)/C(=C/c2cccc(Br)c2)SC1=S)Nc1cccnc1,11
5,CCOC(=O)Cn1nc(C)c2ccccc2c1=O,2.58
6,COc1ccccc1CCNC(=O)C(=O)c1cn(CC(=O)N2CCCC2)c2ccccc12,-7.5
7,Cc1ccccc1C(=O)OCC(=O)N(C)c1ccccc1,-11.6
8,O=C(Cn1cnc2ccccc21)N/N=C/c1cccc([N+](=O)[O-])c1,1.93
9,CC(C)NC(=O)C1CC=CCC1C(=O)O (stereo not drawn),1.83
10,CCc1ccc(NC(=S)N(CCOC)C2CCN(C(C)=O)CC2)cc1,12.5
11,CCOC(=O)Cn1c(=S)[nH]c2c(oc3ccc(Cl)cc32)c1=O,8.1
12,NNC(=O)c1csc(CS(=O)(=O)c2ccc(Cl)cc2)n1,-2.1
13,O=S(=O)(NCCc1cn2ccccc2n1)c1ccc(F)c(C(F)(F)F)c1,-48.8
14,Cc1ccc(CNC(=O)CCNS(=O)(=O)c2ccc(C)cc2)cc1,-0.111
15,CCOC(=O)C1=C(CS(=O)(=O)c2ccccc2)NC(=O)NC1c1ccccc1 (stereo not drawn),7.48
16,COc1ccc(C(=O)N2CCC(O)(c3ccc(Cl)cc3)CC2)cc1OC,-51.9
17,COCCNC(=O)/C(C#N)=C/c1cccc(NC(=O)c2ccccc2Cl)c1,-3.15
18,COCCN=C1Sc2nc3cc4c(cc3cc2CN1CC1CCCO1)OCO4.Cl (stereo not drawn),-5.22
19,Cc1ccc(S(=O)(=O)N2Cc3ccccc3CC2C(=O)Nc2ccc3c(c2)OCO3)cc1 (stereo not drawn),-9.83
20,CCn1c(SCc2nc(-c3ccccc3)no2)nc2ccccc21,-24.6
21,CCCCC(CC)C(=O)Nc1ccc(S(=O)(=O)Nc2nccs2)cc1 (stereo not drawn),-0.352

# Reference: article PMC4336329 (PLoS ONE, 2015)
